Experimental data as given in the supplement of paper PMC10037445.
Over roughly 2,900 compounds, “IRF Lucia reporter activity, fold change vs agonist alone” has its median near 0.9; the highest 2% begin near 2.8. The list shows a part of the results.

Tests used:
RAW-Dual [1] = test: IRF Lucia reporter activity, fold change vs agonist alone; cytotoxicity flag (confluency mask): cytotoxic (confluency <70% of control); higher = enhanced IRF activity
How it was run: (§1)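 After 50 nL of library stock was delivered by pin tool to RAW-Dual macrophages (50,000 cells/well, DMEM, 384-well plates), a PRR agonist was added 1 h later and the plates were kept at 37 °C, 5% CO2. Twenty hours later, IRF was read from supernatant by QuantiLuc luminescence and NF-κB by QuantiBlue absorbance at 620 nm. Reporter activity is stated as fold change over agonist-alone wells. Wells with IncuCyte confluency under 70% of agonist controls in both mask sets were counted as cytotoxic.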

RAW-Dual [2] = test: IRF Lucia reporter activity, fold change vs agonist alone; cytotoxicity flag (confluency mask): not cytotoxic; higher = enhanced IRF activity
How it was run: as §1

RAW-Dual [3] = test: IRF Lucia reporter activity, fold change vs agonist alone; higher = enhanced IRF activity; conditions: agonist: MPLA (TLR4) […]
How it was run: as §1

[4] = agonist: 3'3'-cGAMP (STING) 10 ug/mL
[5] = library stock concentration (final ~1000-fold dilution): 2 mM, cytotoxicity flag (confluency mask): not cytotoxic
[6] = library stock concentration (final ~1000-fold dilution): 10 mM, cytotoxicity flag (confluency mask): not cytotoxic

**Q.** Which results are given for `Cc1cc(Nc2ncc3c(n2)N(C)C(=O)N(c2cc(NC(=O)c4cccc(C(F)(F)F)c4)ccc2C)C3)n(C)n1` (library stock concentration (final ~1000-fold dilution): 10 mM)?
**A.** IRF Lucia reporter activity (RAW-Dual [1]; [4]): 0.0478; IRF Lucia reporter activity (RAW-Dual [1]; agonist: LPS (TLR4) 0.1 ug/mL): 0.0205

**Q.** For `O=C(Nc1nc2cccc(-c3ccc(CN4CCS(=O)(=O)CC4)cc3)n2n1)C1CC1` (library stock concentration (final ~1000-fold dilution): 10 mM), which “IRF Lucia reporter activity” value (RAW-Dual [2]; [4]) is on record?
**A.** 1.1

**Q.** And the “IRF Lucia reporter activity” value (RAW-Dual [2]; agonist: LPS (TLR4) 0.1 ug/mL)?
**A.** 3.4

**Q.** `CNCc1cc(-c2ccccc2F)n(S(=O)(=O)c2cccnc2)c1.O=C(O)/C=C/C(=O)O` (library stock concentration (final ~1000-fold dilution): 10 mM) was tested. Which “IRF Lucia reporter activity” value (RAW-Dual [2]; [4]) did it give?
**A.** 1.17

**Q.** What about the “IRF Lucia reporter activity” value (RAW-Dual [2]; agonist: LPS (TLR4) 0.1 ug/mL) of the same molecule?
**A.** 1.14

**Q.** How did the “IRF Lucia reporter activity” value (RAW-Dual [2]; [4]) turn out when `Cc1cc(CN2CCN(c3c(Br)cnc4[nH]c(-c5ccc(N6CCN(C)CC6)cc5)nc34)CC2)no1` (library stock concentration (final ~1000-fold dilution): 2 mM) was run?
**A.** 0.0281

**Q.** What about the “IRF Lucia reporter activity” value (RAW-Dual [2]; agonist: LPS (TLR4) 0.1 ug/mL) of the same molecule?
**A.** 0.176

**Q.** Which “IRF Lucia reporter activity” value (RAW-Dual [3]; [5]) does the source give for `Cc1cc(CN2CCN(c3c(Br)cnc4[nH]c(-c5ccc(N6CCN(C)CC6)cc5)nc34)CC2)no1` here?
**A.** 0.939

**Q.** Which results are given for `CC(=O)Oc1ccccc1C(=O)O` (library stock concentration (final ~1000-fold dilution): 10 mM)?
**A.** IRF Lucia reporter activity (RAW-Dual [2]; [4]): 1.05; IRF Lucia reporter activity (RAW-Dual [2]; agonist: LPS (TLR4) 0.1 ug/mL): 0.995

**Q.** For `CC(=O)Oc1ccccc1C(=O)O`, which “IRF Lucia reporter activity” value (RAW-Dual [3]; [6]) is on record?
**A.** 1.09

**Q.** With `O=c1cc(-c2ccccc2)oc2cc(O)ccc12` as the molecule, how does the “IRF Lucia reporter activity” value (RAW-Dual [3]; [6]) read?
**A.** 0.85

**Q.** With `O=c1cc(-c2ccccc2)oc2cc(O)ccc12` (library stock concentration (final ~1000-fold dilution): 10 mM) as the molecule, how does the “IRF Lucia reporter activity” value (RAW-Dual [2]; [4]) read?
**A.** 0.894

**Q.** What about the “IRF Lucia reporter activity” value (RAW-Dual [2]; agonist: LPS (TLR4) 0.1 ug/mL) of the same molecule?
**A.** 0.852

**Q.** Which “IRF Lucia reporter activity” value (RAW-Dual [2]; [4]) does the source give for `Nc1nc(NC2CC2)cc(-c2cccc(Cl)c2Cl)n1` (library stock concentration (final ~1000-fold dilution): 10 mM) here?
**A.** 0.986

**Q.** What about the “IRF Lucia reporter activity” value (RAW-Dual [2]; agonist: LPS (TLR4) 0.1 ug/mL) of the same molecule?
**A.** 0.661

**Q.** `CC(C)=CC[C@@H](O)C1=CC(=O)c2c(O)ccc(O)c2C1=O` (library stock concentration (final ~1000-fold dilution): 10 mM) was tested. Which “IRF Lucia reporter activity” value (RAW-Dual [1]; [4]) did it give?
**A.** 0.0149

**Q.** What about the “IRF Lucia reporter activity” value (RAW-Dual [1]; agonist: LPS (TLR4) 0.1 ug/mL) of the same molecule?
**A.** 0.0176

**Q.** With `CN(C)CC/C=C1\c2ccccc2COc2ccccc21.Cl` as the molecule, how does the “IRF Lucia reporter activity” value (RAW-Dual [3]; [6]) read?
**A.** 1.11

**Q.** `CN(C)CC/C=C1\c2ccccc2COc2ccccc21.Cl` (library stock concentration (final ~1000-fold dilution): 10 mM) was tested. Which “IRF Lucia reporter activity” value (RAW-Dual [2]; [4]) did it give?
**A.** 0.7

**Q.** What about the “IRF Lucia reporter activity” value (RAW-Dual [2]; agonist: LPS (TLR4) 0.1 ug/mL) of the same molecule?
**A.** 0.94

**Q.** How did the “IRF Lucia reporter activity” value (RAW-Dual [1]; [4]) turn out when `O=C(c1ccc(F)c(F)c1Nc1ccc(I)cc1F)N1CC(O)(C2CCCCN2)C1` (stereo not given) (library stock concentration (final ~1000-fold dilution): 10 mM) was run?
**A.** 0.077

**Q.** And the “IRF Lucia reporter activity” value (RAW-Dual [1]; agonist: LPS (TLR4) 0.1 ug/mL)?
**A.** 0.902

**Q.** `CCc1cc2c(cc1N1CCC(N3CCOCC3)CC1)C(C)(C)c1[nH]c3cc(C#N)ccc3c1C2=O` was tested. Which “IRF Lucia reporter activity” value (RAW-Dual [3]; [6]) did it give?
**A.** 0.952

**Q.** Which results are given for `CCc1cc2c(cc1N1CCC(N3CCOCC3)CC1)C(C)(C)c1[nH]c3cc(C#N)ccc3c1C2=O` (library stock concentration (final ~1000-fold dilution): 10 mM)?
**A.** IRF Lucia reporter activity (RAW-Dual [2]; [4]): 0.992; IRF Lucia reporter activity (RAW-Dual [2]; agonist: LPS (TLR4) 0.1 ug/mL): 1.42

**Q.** Which results are given for `O=C(NCC1(c2nc(-c3ccccc3)cs2)CCOCC1)c1cccc(-c2noc(C(F)(F)F)n2)c1` (library stock concentration (final ~1000-fold dilution): 10 mM)?
**A.** IRF Lucia reporter activity (RAW-Dual [2]; [4]): 0.449; IRF Lucia reporter activity (RAW-Dual [2]; agonist: LPS (TLR4) 0.1 ug/mL): 0.984

**Q.** For `O=C(NCC1(c2nc(-c3ccccc3)cs2)CCOCC1)c1cccc(-c2noc(C(F)(F)F)n2)c1`, which “IRF Lucia reporter activity” value (RAW-Dual [3]; [6]) is on record?
**A.** 1.01

**Q.** What does the source list for `CCN(C)S(=O)(=O)Nc1ccc(F)c(C(=O)c2c[nH]c3ncc(-c4cnc(C5CC5)nc4)cc23)c1F` (library stock concentration (final ~1000-fold dilution): 10 mM)?
**A.** IRF Lucia reporter activity (RAW-Dual [2]; [4]): 0.0563; IRF Lucia reporter activity (RAW-Dual [2]; agonist: LPS (TLR4) 0.1 ug/mL): 0.409

**Q.** Which “IRF Lucia reporter activity” value (RAW-Dual [3]; [6]) does the source give for `CC12CCC(O)CC1=CCC1C2CCC2(C)C(n3cnc4ccccc43)=CCC12` (stereo not given) here?
**A.** 0.987

**Q.** With `CC12CCC(O)CC1=CCC1C2CCC2(C)C(n3cnc4ccccc43)=CCC12` (stereo not given) (library stock concentration (final ~1000-fold dilution): 10 mM) as the molecule, how does the “IRF Lucia reporter activity” value (RAW-Dual [2]; [4]) read?
**A.** 0.655

**Q.** And the “IRF Lucia reporter activity” value (RAW-Dual [2]; agonist: LPS (TLR4) 0.1 ug/mL)?
**A.** 0.794

**Q.** With `COc1cc2c(Nc3ccc(Br)cc3F)ncnc2cc1OCC1CCN(C)CC1` (library stock concentration (final ~1000-fold dilution): 2 mM) as the molecule, how does the “IRF Lucia reporter activity” value (RAW-Dual [2]; [4]) read?
**A.** 0.161

**Q.** And the “IRF Lucia reporter activity” value (RAW-Dual [2]; agonist: LPS (TLR4) 0.1 ug/mL)?
**A.** 0.864

**Q.** Which “IRF Lucia reporter activity” value (RAW-Dual [3]; [5]) does the source give for `COc1cc2c(Nc3ccc(Br)cc3F)ncnc2cc1OCC1CCN(C)CC1` here?
**A.** 1.08

**Q.** `CC12CCC3c4ccc(O)cc4CCC3C1CC(O)C2O` (stereo not given) (library stock concentration (final ~1000-fold dilution): 10 mM) was tested. Which “IRF Lucia reporter activity” value (RAW-Dual [2]; [4]) did it give?
**A.** 0.556

**Q.** And the “IRF Lucia reporter activity” value (RAW-Dual [2]; agonist: LPS (TLR4) 0.1 ug/mL)?
**A.** 0.982

**Q.** `CC12CCC3c4ccc(O)cc4CCC3C1CC(O)C2O` (stereo not given) was tested. Which “IRF Lucia reporter activity” value (RAW-Dual [3]; [6]) did it give?
**A.** 1.06

**Q.** How did the “IRF Lucia reporter activity” value (RAW-Dual [1]; [4]) turn out when `CCOC(=O)C1=C(COCCN)NC(C)=C(C(=O)OC)C1c1ccccc1Cl.O=S(=O)(O)c1ccccc1` (stereo not given) (library stock concentration (final ~1000-fold dilution): 10 mM) was run?
**A.** 1.02

**Q.** What about the “IRF Lucia reporter activity” value (RAW-Dual [1]; agonist: LPS (TLR4) 0.1 ug/mL) of the same molecule?
**A.** 3.19

**Q.** With `CCOC(=O)C1=C(COCCN)NC(C)=C(C(=O)OC)C1c1ccccc1Cl.O=S(=O)(O)c1ccccc1` (stereo not given) as the molecule, how does the “IRF Lucia reporter activity” value (RAW-Dual [3]; library stock concentration (final ~1000-fold dilution): 10 mM, cytotoxicity flag (confluency mask): cytotoxic (confluency <70% of control)) read?
**A.** 3.36

**Q.** How did the “IRF Lucia reporter activity” value (RAW-Dual [2]; [4]) turn out when `Cc1ccc(NC(=O)c2ccc(CN3CCN(C)CC3)cc2)cc1Nc1nccc(-c2cccnc2)n1` (library stock concentration (final ~1000-fold dilution): 10 mM) was run?
**A.** 0.549

**Q.** And the “IRF Lucia reporter activity” value (RAW-Dual [2]; agonist: LPS (TLR4) 0.1 ug/mL)?
**A.** 0.944

**Q.** For `Cc1ccc(NC(=O)c2ccc(CN3CCN(C)CC3)cc2)cc1Nc1nccc(-c2cccnc2)n1`, which “IRF Lucia reporter activity” value (RAW-Dual [3]; [6]) is on record?
**A.** 1.29

**Q.** With `CCN(CC)CCOC(=O)C(Cc1cccc2ccccc12)CC1CCCO1.O=C(O)C(=O)O` (stereo not given) as the molecule, how does the “IRF Lucia reporter activity” value (RAW-Dual [3]; [6]) read?
**A.** 1.25

**Q.** With `CCN(CC)CCOC(=O)C(Cc1cccc2ccccc12)CC1CCCO1.O=C(O)C(=O)O` (stereo not given) (library stock concentration (final ~1000-fold dilution): 10 mM) as the molecule, how does the “IRF Lucia reporter activity” value (RAW-Dual [2]; [4]) read?
**A.** 0.458

**Q.** And the “IRF Lucia reporter activity” value (RAW-Dual [2]; agonist: LPS (TLR4) 0.1 ug/mL)?
**A.** 1.16

**Q.** Which results are given for `CC(C)(O)c1cc(Nc2cc(Oc3cn(C4CC4)nc3C3CCOCC3)ccn2)ccn1` (library stock concentration (final ~1000-fold dilution): 10 mM)?
**A.** IRF Lucia reporter activity (RAW-Dual [2]; [4]): 1.14; IRF Lucia reporter activity (RAW-Dual [2]; agonist: LPS (TLR4) 0.1 ug/mL): 1.53

**Q.** What does the source list for `Cc1c(C(=O)NN2CCCCC2)nn(-c2ccc(Cl)cc2Cl)c1-c1ccc(Cl)cc1` (library stock concentration (final ~1000-fold dilution): 10 mM)?
**A.** IRF Lucia reporter activity (RAW-Dual [2]; [4]): 0.269; IRF Lucia reporter activity (RAW-Dual [2]; agonist: LPS (TLR4) 0.1 ug/mL): 1.25

**Q.** For `Cc1c(C(=O)NN2CCCCC2)nn(-c2ccc(Cl)cc2Cl)c1-c1ccc(Cl)cc1`, which “IRF Lucia reporter activity” value (RAW-Dual [3]; [6]) is on record?
**A.** 1.15
